Experimental findings from the supplement of paper PMC4604168 (melanoma cell lines) are described below.

Some of the results follow. Repeats are few or missing, and single values can be far off.
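Note: cells treated in 1,536-well plates, then fixed and DAPI-stained, with nuclei counted from automated high-throughput microscope images.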

This assay deals with WM1716. Put plainly: cell count relative to DMSO control; melanoma cells; higher = more viable cells. The note with it: library dose: standard library concentration; 72 h.
With `N#CC[C@H](C1CCCC1)n1cc(-c2ncnc3[nH]ccc23)cn1` [ruxolitinib] + NC(=O)Nc1cc(-c2cccc(F)c2)sc1C(=O)N[C@H]1CCCNC1 [AZD7762] (first compound 5 µM, partner dose 0.1 µM), the cell count stood at 68.2%.

Turning to `N#CC[C@H](C1CCCC1)n1cc(-c2ncnc3[nH]ccc23)cn1` [ruxolitinib] + O=C(Nc1cccc(Cl)c1)Nc1ncc(CCNc2ncnc3ccsc23)s1 [SNS314] (first compound 5 µM, partner dose 0.004 µM), the cell count was 50.9%.

The compound `N#CC[C@H](C1CCCC1)n1cc(-c2ncnc3[nH]ccc23)cn1` [ruxolitinib] + CN(NC(=O)CC(=O)NN(C)C(=S)c1ccccc1)C(=S)c1ccccc1 [STA4783] (first compound 5 µM, partner dose 0.03 µM) registered a cell count of 76.7%.

`N#CC[C@H](C1CCCC1)n1cc(-c2ncnc3[nH]ccc23)cn1` [ruxolitinib] + O=C(CCCCCCC(=O)Nc1ccccc1)NO [vorinostat] (first compound 5 µM, partner dose 0.4 µM) returned a cell count of 83.2%.

`Cc1cc(Nc2cc(N3CCN(C)CC3)nc(Sc3ccc(NC(=O)C4CC4)cc3)n2)n[nH]1` [Tozasertib] + OCCn1cc(-c2cnc3nnn(Cc4ccc5ncccc5c4)c3n2)cn1 [PF04217903] (first compound 0.03 µM, partner dose 5 µM): the cell count is 57.5%.

Take `N#CC[C@H](C1CCCC1)n1cc(-c2ncnc3[nH]ccc23)cn1` [ruxolitinib] + Cc1cc(N2CCOCC2)cc2[nH]c(-c3c(NC[C@@H](O)c4cccc(Cl)c4)cc[nH]c3=O)nc12 [BMS536924] (first compound 5 µM, partner dose 1 µM): the cell count amounted to 78.5%.

Take `N#CC[C@H](C1CCCC1)n1cc(-c2ncnc3[nH]ccc23)cn1` [ruxolitinib] + C=CCn1c(=O)c2cnc(Nc3ccc(N4CCN(C)CC4)cc3)nc2n1-c1cccc(C(C)(C)O)n1 [MK1775] (first compound 5 µM, partner dose 0.1 µM): the cell count is 60.8%.

`N#CC[C@H](C1CCCC1)n1cc(-c2ncnc3[nH]ccc23)cn1` [ruxolitinib] + C[C@@H]1CCN(C(=O)CC#N)C[C@@H]1N(C)c1ncnc2[nH]ccc12 [CP690550] (first compound 5 µM, partner dose 5 µM) yielded a cell count of 83.5%.

With `CC[C@]1(O)C[C@H]2CN(CCc3c([nH]c4ccccc34)[C@@](C(=O)OC)(c3cc4c(cc3OC)N(C=O)[C@H]3[C@@](O)(C(=O)OC)[C@H](OC(C)=O)[C@]5(CC)C=CCN6CC[C@]43[C@@H]65)C2)C1` [vincristine] + CN(C)S(=O)(=O)c1ccc2c(c1)/C(=C/c1cc3c([nH]1)CCCC3)C(=O)N2 [SU6656] (first compound 0.0005 µM, partner dose 2 µM), the cell count worked out at 30.1%.

`Cc1cc(Nc2cc(N3CCN(C)CC3)nc(Sc3ccc(NC(=O)C4CC4)cc3)n2)n[nH]1` [Tozasertib] + Cc1cc(N2CCOCC2)cc2[nH]c(-c3c(NC[C@@H](O)c4cccc(Cl)c4)cc[nH]c3=O)nc12 [BMS536924] (first compound 0.03 µM, partner dose 1 µM) gave a cell count of 80.7%.

As for `N#CC[C@H](C1CCCC1)n1cc(-c2ncnc3[nH]ccc23)cn1` [ruxolitinib] + Cn1c(Nc2ccc(C(F)(F)F)cc2)nc2cc(Oc3ccnc(-c4ncc(C(F)(F)F)[nH]4)c3)ccc21 [CHIR265] (first compound 5 µM, partner dose 0.4 µM), the cell count was 65.7%.

In turn, `CC[C@]1(O)C[C@H]2CN(CCc3c([nH]c4ccccc34)[C@@](C(=O)OC)(c3cc4c(cc3OC)N(C=O)[C@H]3[C@@](O)(C(=O)OC)[C@H](OC(C)=O)[C@]5(CC)C=CCN6CC[C@]43[C@@H]65)C2)C1` [vincristine] + Cc1ccc(NC(=O)c2cccc(N(C)C)c2)cc1NC(=O)c1ccc(O)cc1 [ZM336372] (first compound 0.0005 µM, partner dose 10 µM) displayed a cell count of 46%.

Turning to `N#CC[C@H](C1CCCC1)n1cc(-c2ncnc3[nH]ccc23)cn1` [ruxolitinib] + Cc1ccc(NC(=O)c2cccc(N(C)C)c2)cc1NC(=O)c1ccc(O)cc1 [ZM336372] (first compound 5 µM, partner dose 10 µM), the cell count worked out at 108%.

Regarding `Cc1cc(Nc2cc(N3CCN(C)CC3)nc(Sc3ccc(NC(=O)C4CC4)cc3)n2)n[nH]1` [Tozasertib] + CO[C@@H]1[C@H](N(C)C(=O)c2ccccc2)C[C@H]2O[C@]1(C)n1c3ccccc3c3c4c(c5c6ccccc6n2c5c31)C(=O)NC4 [Midostaurin] (first compound 0.03 µM, partner dose 0.4 µM), the cell count came to 30.3%.

As for `N#CC[C@H](C1CCCC1)n1cc(-c2ncnc3[nH]ccc23)cn1` [ruxolitinib] + COc1cc(Nc2ncc(F)c(Nc3ccc4c(n3)NC(=O)C(C)(C)O4)n2)cc(OC)c1OC [Tamatinib] (first compound 5 µM, partner dose 2 µM), the cell count amounted to 55.7%.

Take `Cc1cc(Nc2cc(N3CCN(C)CC3)nc(Sc3ccc(NC(=O)C4CC4)cc3)n2)n[nH]1` [Tozasertib] + O=C(O)c1ccc(-c2c[nH]c3ncc(-c4ccccc4)cc23)cc1C1CCCC1 [GSK650394] (first compound 0.03 µM, partner dose 0.8 µM): the cell count turned out to be 77.8%.

With `Cc1cc(Nc2cc(N3CCN(C)CC3)nc(Sc3ccc(NC(=O)C4CC4)cc3)n2)n[nH]1` [Tozasertib] + COc1cc(Nc2ncc(F)c(Nc3ccc4c(n3)NC(=O)C(C)(C)O4)n2)cc(OC)c1OC [Tamatinib] (first compound 0.03 µM, partner dose 2 µM), the cell count came out at 67.4%.

Turning to `Cc1cc(Nc2cc(N3CCN(C)CC3)nc(Sc3ccc(NC(=O)C4CC4)cc3)n2)n[nH]1` [Tozasertib] + Cn1cncc1[C@@](N)(c1ccc(Cl)cc1)c1ccc2c(c1)c(-c1cccc(Cl)c1)cc(=O)n2C [tipifarnib] (first compound 0.03 µM, partner dose 0.05 µM), the cell count was 73.4%.

As to `CC[C@]1(O)C[C@H]2CN(CCc3c([nH]c4ccccc34)[C@@](C(=O)OC)(c3cc4c(cc3OC)N(C=O)[C@H]3[C@@](O)(C(=O)OC)[C@H](OC(C)=O)[C@]5(CC)C=CCN6CC[C@]43[C@@H]65)C2)C1` [vincristine] + NC(=O)Nc1cc(-c2cccc(F)c2)sc1C(=O)N[C@H]1CCCNC1 [AZD7762] (first compound 0.0005 µM, partner dose 0.1 µM), the cell count is 37.2%.

On to `Cc1cc(Nc2cc(N3CCN(C)CC3)nc(Sc3ccc(NC(=O)C4CC4)cc3)n2)n[nH]1` [Tozasertib] + CN(C)S(=O)(=O)c1ccc2c(c1)/C(=C/c1cc3c([nH]1)CCCC3)C(=O)N2 [SU6656] (first compound 0.03 µM, partner dose 2 µM), for which the cell count turned out to be 62.6%.

`N#CC[C@H](C1CCCC1)n1cc(-c2ncnc3[nH]ccc23)cn1` [ruxolitinib] + COc1cc2c(Oc3ccc4[nH]c(C)cc4c3F)ncnc2cc1OCCCN1CCCC1 [cediranib] (first compound 5 µM, partner dose 2 µM) had a cell count of 99.8%.

`CC[C@]1(O)C[C@H]2CN(CCc3c([nH]c4ccccc34)[C@@](C(=O)OC)(c3cc4c(cc3OC)N(C=O)[C@H]3[C@@](O)(C(=O)OC)[C@H](OC(C)=O)[C@]5(CC)C=CCN6CC[C@]43[C@@H]65)C2)C1` [vincristine] + COc1cc2c(Oc3ccc4[nH]c(C)cc4c3F)ncnc2cc1OCCCN1CCCC1 [cediranib] (first compound 0.0005 µM, partner dose 2 µM): the cell count is 34.2%.

As for `CC[C@]1(O)C[C@H]2CN(CCc3c([nH]c4ccccc34)[C@@](C(=O)OC)(c3cc4c(cc3OC)N(C=O)[C@H]3[C@@](O)(C(=O)OC)[C@H](OC(C)=O)[C@]5(CC)C=CCN6CC[C@]43[C@@H]65)C2)C1` [vincristine] + O=C(Nc1cccc(Cl)c1)Nc1ncc(CCNc2ncnc3ccsc23)s1 [SNS314] (first compound 0.0005 µM, partner dose 0.004 µM), the cell count was determined as 28.6%.
